Reference: article PMC4336329 (PLoS ONE, 2015)
Among all 310,000 compounds or so, about 14,000 (4.5%) showed an effect of 50% or more. The effect is printed as a negative number. Some of the results follow.

target: human ether-à-go-go-related gene (hERG) potassium channel (human, UniProt Q12809); test: primary screen, population patch clamp on CHO cells stably expressing hERG
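Note: peak tail current of the secondary pulse compared with the same well before compound.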

Chain of human ether-à-go-go-related gene (hERG) potassium channel (Q12809 whole entry, looked up): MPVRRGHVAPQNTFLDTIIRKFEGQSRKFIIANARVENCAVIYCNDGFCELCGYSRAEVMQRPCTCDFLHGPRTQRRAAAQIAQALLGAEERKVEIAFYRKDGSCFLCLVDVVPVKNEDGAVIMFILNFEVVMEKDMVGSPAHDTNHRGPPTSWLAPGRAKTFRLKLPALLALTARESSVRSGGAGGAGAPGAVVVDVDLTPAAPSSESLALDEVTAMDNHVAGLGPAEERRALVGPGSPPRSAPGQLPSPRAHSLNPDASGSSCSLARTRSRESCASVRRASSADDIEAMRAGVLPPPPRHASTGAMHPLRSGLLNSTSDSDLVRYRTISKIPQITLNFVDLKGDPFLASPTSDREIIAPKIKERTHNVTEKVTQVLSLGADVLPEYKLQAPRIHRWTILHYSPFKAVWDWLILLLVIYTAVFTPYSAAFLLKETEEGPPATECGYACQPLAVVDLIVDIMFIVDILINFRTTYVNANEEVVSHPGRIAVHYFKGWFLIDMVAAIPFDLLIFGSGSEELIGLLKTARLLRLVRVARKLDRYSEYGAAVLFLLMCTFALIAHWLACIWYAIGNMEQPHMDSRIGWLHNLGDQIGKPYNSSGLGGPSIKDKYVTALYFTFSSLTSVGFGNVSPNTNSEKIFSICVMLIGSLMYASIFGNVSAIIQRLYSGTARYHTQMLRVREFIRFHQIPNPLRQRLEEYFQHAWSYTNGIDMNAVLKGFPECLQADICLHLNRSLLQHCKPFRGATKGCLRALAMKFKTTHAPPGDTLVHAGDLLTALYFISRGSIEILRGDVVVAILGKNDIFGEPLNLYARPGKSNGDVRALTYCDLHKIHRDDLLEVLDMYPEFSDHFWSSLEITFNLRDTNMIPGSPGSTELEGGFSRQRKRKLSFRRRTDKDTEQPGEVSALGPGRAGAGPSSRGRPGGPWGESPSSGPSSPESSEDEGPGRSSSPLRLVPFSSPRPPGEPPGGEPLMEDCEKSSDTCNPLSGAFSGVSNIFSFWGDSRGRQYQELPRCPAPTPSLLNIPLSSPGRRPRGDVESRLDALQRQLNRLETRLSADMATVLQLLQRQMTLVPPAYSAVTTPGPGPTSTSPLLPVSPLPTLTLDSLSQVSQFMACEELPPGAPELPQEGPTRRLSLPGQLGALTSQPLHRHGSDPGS

Structure (SMILES)	hERG current change (%, negative = inhibition) at 10uM [%]
CCOc1ccc(-n2nnnc2SCC(=O)NNC(=O)c2ccco2)cc1	-0.29
O=C1CSC(c2ccccc2F)N1c1cc(Cl)ccc1O (centres unmarked)	-4.06
NC(=O)N/N=C/c1c(O)ccc2oc3c(c12)CCCC3	13.1
CCNS(=O)(=O)c1ccc(CCC(=O)NCc2ccc(C)cc2)cc1	-53.1
CCC(CC)NC(=O)c1cc(OC)c(OC)c(OC)c1	15.9
Br.CCCCCCCCCCn1ccc(=N)cc1	-72.9
O=C(COC(=O)/C=C/c1ccc(C(F)(F)F)cc1)NCc1ccco1	23.1
Cc1ccc(C)c(NC(=O)c2ccc(OC(=O)c3ccco3)cc2)c1	0.438
CCC(C)NC(=O)C1CCCN(c2nc(C)cc(OC)n2)C1 (centres unmarked)	7.02
S=c1[nH]nc(-c2ccccc2Cl)n1CC1CCCO1 (centres unmarked)	-9.96
C=C1CCN([C@H](C(=O)O)C(C)C)S(=O)(=O)c2ccccc21	6.38
CCOc1cc(C2CC(=O)NC3=C2C(=O)C(C(=O)OC)C(C)C3)cc(Br)c1O (centres unmarked)	1.19
COc1cccc(/C=C/C(=O)NNC(=O)c2ccncc2)c1	-20.5
C/C(=N\NC(=O)c1cccnc1)c1cc2ccccc2o1	-1.01
N#CCCNS(=O)(=O)c1ccc(C(=O)OCCCOC(=O)c2ccc(S(=O)(=O)NCCC#N)cc2)cc1	5.47
Cc1ccccc1NC(=O)c1ccccc1NC(=O)c1ccccc1F	11.3
O=C(Nc1ccc(O)cc1)c1ccc2c(c1)C(=O)N(Cc1ccco1)C2=O	-42.8
COCC(C)n1c(C)cc(C(=O)COC(=O)c2nc3nc(C)cc(C)n3n2)c1C (centres unmarked)	8.12
O=C(c1ccc(COc2ccccc2)o1)N1CCN(S(=O)(=O)c2ccccc2Cl)CC1	-46.3
O=C(CSc1nnc(CNc2ccc(F)cc2)n1Cc1ccccc1)NCc1ccccc1	5.28
S=C(NCc1cccs1)Nc1cc(Cl)cc(Cl)c1	13
COCC(=O)Nc1ccccc1C(=O)NC(C)C	12
COc1ccc(-c2nc(CSCC(=O)N3CCN(c4cccc(C)c4)C(C)C3)c(C)o2)cc1OC (centres unmarked)	-32.6

Structure (SMILES)	hERG current change (%, negative = inhibition) at 10uM [%]
Cc1c(O)ccc(C(=O)CN2CC(C)OC(C)C2)c1O (centres unmarked)	18.9
CC(C)C[C@@H](CO)N1CCN(CCc2ccccc2)CCC1=O	-23
C/C(=N/O)c1cccc(N2Cc3ccccc3C2)c1	3.23
Cc1ccc(C)c(OCCC(=O)Nc2ccc(S(=O)(=O)N3CCCC3)cc2)c1	13.1
CS(=O)(=O)Nc1ccc(C(=O)NCc2cccnc2)cc1	1.62
Cc1[nH]n(-c2ccccc2)c(=O)c1/C=N/N(c1ccccc1)c1ccccc1	41.6
O=C(c1nc(-c2ccccc2)n(-c2ccccc2)n1)N1CCCCCC1	-24.5
O=C(Nc1ccccc1N1CCOCC1)c1ccncc1	-1.93
COc1ccc(CCn2c(=N)c(C(=O)NCC3CCCO3)cc3c(=O)n4cccc(C)c4nc32)cc1 (centres unmarked)	-79.7
C=CCn1c(SCc2c(C)noc2C)nc2sc3c(c2c1=O)CCCC3	-7.01
Cc1cccc(CS(=O)(=O)Cc2ccc(C(=O)NCc3ccccc3)o2)c1	-19.9
COc1ccccc1NCCC(=O)OCC(=O)NC1CCCCCC1	27.1
O=C(O)c1ccc(-n2cccc2/C=N\NC(=O)c2cc3cc(Br)ccc3o2)cc1	10.1
CCC(=O)NC(c1cccs1)c1ccc2cccnc2c1O (centres unmarked)	13
CC(C)C(=O)N=C1SC2CS(=O)(=O)CC2N1Cc1ccc(Cl)cc1 (centres unmarked)	9.08
CC(C)c1ccc(/C=C/C(=O)NCCCN2CCOCC2)cc1	-39
CN(C)c1ccc(-n2cccc2)cc1	6.37
O=C(CC1C(=O)NCCN1Cc1ccccc1C(F)(F)F)NC1CCCC1 (centres unmarked)	-10.9
COc1cccc(/C=N/NC(=O)c2ccc(N(C)S(=O)(=O)c3ccccc3)cc2)c1OC	0.494
COc1cc(-c2nc3ccccn3c2NCC2CCCO2)ccc1O (centres unmarked)	-17.9
COc1ccccc1NC(=O)CN1CCN(c2ccccc2F)CC1	-18.4
O=c1[nH]c(SCc2nc3ccccc3n2Cc2ccccc2)nc2ccccc12	10.6
CCOCCCNC(=O)c1c(C)[nH]c(C(=O)OCC)c1C	-9.77

Structure (SMILES)	hERG current change (%, negative = inhibition) at 10uM [%]
O=C(CCc1ccc(S(=O)(=O)N2CCCCC2)cc1)c1nnc(-c2ccccc2)o1	-12.7
COc1cccc(C=Nc2cccnc2)c1O	-2.5
Cc1c(OCC(=O)NC(Cc2c[nH]c3ccc(O)cc23)C(=O)O)ccc2c3c(c(=O)oc12)CCC3 (centres unmarked)	-2.19
CC(C)CCc1noc(CN(C)CCC2CCOCC2)n1	18.1
COCCN(CC(=O)NCC1CCCO1)C(=O)CCC(=O)Nc1cc(C)ccn1 (centres unmarked)	11.3
COc1ccc(/C=C2\SC(=O)N(CC(=O)NC3CCS(=O)(=O)C3)C2=O)cc1 (centres unmarked)	21.9
Cc1nc2ccc(S(=O)(=O)N3CCCCC3)cc2s1	0.757
N#CCC(=O)Nc1ccc(C(=O)NCCC(c2ccccc2)c2ccccc2)cc1	22.4
Cc1nnc(SCC2=C(C(=O)O)N3C(=O)C(NC(=O)Cn4nc(C)c(Cl)c4C)C3SC2)s1 (centres unmarked)	28
O=C(Cc1ccc(Cl)cc1)c1c[nH]c(C(=O)NCCCn2ccnc2)c1	-43.9
O=C(OCc1nc2ccccc2s1)c1cnccn1	-17.3
O=C(N/N=C/c1cccnc1)c1ccccc1OCc1cccc(Br)c1	-17.1
CCC(=O)Nc1nc(N)n(-c2ccccc2)n1	9.2
COc1ccc(NC(=O)CN(C)C(=O)CNC(=O)C2CCCCC2)cc1	3.42
CCCCCC1CCC(c2ccc(/C(N)=N/O)cc2)CC1 (centres unmarked)	22.8
COc1ccccc1NC(=O)C1CCCN1S(=O)(=O)c1ccc(Cl)cc1 (centres unmarked)	9.52
CC(C)c1cc(C(=O)N2CCCC(C(=O)c3ccc4ccccc4c3)C2)on1 (centres unmarked)	-21.8
O=S(=O)(c1ccc(NC(=S)N/N=C/c2ccc(Oc3ccccc3)cc2)cc1)N1CCOCC1	1.52
CCCc1cc(=S)n2c([nH]c3ccccc32)c1C#N	1.66
CC(=O)Nc1ccc(NC(=O)Cn2cnc3c(nnn3Cc3ccc(F)cc3)c2=O)cc1	24.2
CC(C)COC(=O)n1c(=O)oc2cc(S(=O)(=O)N3CCCCC3)ccc21	-6.37
CC(Sc1ncnc2c1cnn2-c1ccccc1)C(=O)Nc1ccc(N2CCOCC2)cc1 (centres unmarked)	17.2
CCOc1ccccc1C(=O)NCC(=O)NCC(c1ccc(OC)cc1)N1CCOCC1 (centres unmarked)	-12.4

Structure (SMILES)	hERG current change (%, negative = inhibition) at 10uM [%]
CCn1ccnc1CN1CCN(CCC(C)C)C(CCO)C1 (centres unmarked)	18.9
Cc1cc(C)n2nc(C(=O)OCC(=O)Nc3ccc4c(c3)OCCO4)nc2n1	3.56
CCOc1cc(/C=C(\CC(=O)O)c2nc3ccccc3s2)ccc1OC	-0.579
COc1cc(O)c(C(CCN2CCN(c3ccccc3)CC2)c2ccc3c(c2)OCO3)c(OC)c1 (centres unmarked)	-16.6
CCn1c(O)c(N=Nc2cccc(S(=O)(=O)N3CCOCC3)c2)c(=O)n(CC)c1=S	-8.78
O=C(CSc1nnc(NC(=O)C2CC2)s1)Nc1ccc2c(c1)OCCO2	5.48
CCOC(=O)C1(Cc2ccc(Cl)cc2)CCN(C(=O)C2=NNC(=O)CC2)CC1	-69.6
Nc1nc(SCn2nnc3ccccc3c2=O)n[nH]1	18.4
COc1cccc(C(=O)CN2C(=O)C(C)(C)Oc3ccc(C(=O)N4CCCCCC4)cc32)c1	-9.93
O=C(COc1ccccc1Cl)NNC(=O)c1ccc2nc[nH]c2c1	1.82
CCOC(=O)[C@H]1[C@H]2COc3ccc(Cl)cc3[C@@H]2N2C(=O)CN(Cc3ccc(C)cc3)C(=O)[C@@]12C	5.81
COc1ccc(N2CCN(C(=O)COC(=O)Cc3cccc(OC)c3)CC2)cc1	-20
O=C(CC(=O)c1ccccc1O)c1cccc(F)c1	-7.86
CCn1cc(CNCc2cn[nH]c2-c2cc3ccccc3o2)cn1	-14.1
CCc1nc(SCC(=O)Nc2ccccc2OC)n[nH]1	17.3
Nc1n[nH]c2cccc(Cl)c12	6.18
CC(C)CCC1=NN(C(=O)c2ccco2)C(O)(C(F)(F)F)C1 (centres unmarked)	0.342
CC(C)CNC(=O)C(=O)NCc1ccccn1	21.4
O=C(O)/C=C\C(=O)O.OCCN1CCN(C2CCC(c3ccc(F)cc3)c3ccc(F)cc32)CC1 (centres unmarked)	-44.5
CC(=O)Nc1ccc(NC(=O)Cc2sc(-c3cccnc3)nc2-c2ccc(C)cc2)cc1	-44.8
